# The list shows a part of the results. The energies were worked out here from pooled read counts, against the library average; single values are noisy.
# Molecular target: T1, Pho4 (S. cerevisiae) (UniProt P07270)
# T1 sequence: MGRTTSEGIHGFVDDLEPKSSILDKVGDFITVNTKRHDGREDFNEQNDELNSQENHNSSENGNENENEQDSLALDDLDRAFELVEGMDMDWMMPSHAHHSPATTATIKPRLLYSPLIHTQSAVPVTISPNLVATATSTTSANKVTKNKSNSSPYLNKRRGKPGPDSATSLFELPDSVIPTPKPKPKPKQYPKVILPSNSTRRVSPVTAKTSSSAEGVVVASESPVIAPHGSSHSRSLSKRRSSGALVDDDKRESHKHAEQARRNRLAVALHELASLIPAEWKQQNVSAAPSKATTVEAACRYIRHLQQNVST
# Experiment: relative binding free energy (BET-seq); higher = weaker binding
# Details: reference: library average
row,Sequence,relative binding free energy
1,GGGTTCACGTGAATGC,0.44 kcal/mol
2,TAAGTCACGTGAGGCT,0.25 kcal/mol
3,AGTCGCACGTGGTGGC,-0.15 kcal/mol
4,GGGTTCACGTGATAAT,0.49 kcal/mol
5,CATGTCACGTGGGGTA,-0.04 kcal/mol
6,CGGGTCACGTGTATGG,0.13 kcal/mol
7,GGTTTCACGTGAAACG,0.37 kcal/mol
8,TAATTCACGTGAAGGT,0.38 kcal/mol
9,TTGGTCACGTGCGTGC,-0.05 kcal/mol
10,TGAGGCACGTGTAATA,0.01 kcal/mol
11,TCTATCACGTGGTGAG,0.16 kcal/mol
12,TGAATCACGTGTGTGC,0.06 kcal/mol
13,TTTATCACGTGCTAAG,0.1 kcal/mol
14,GGGGACACGTGCTGGG,0 kcal/mol
15,TAGGCCACGTGGGCTA,-0.15 kcal/mol
16,TTCGTCACGTGGTTTT,0.1 kcal/mol
17,TCCGGCACGTGAGTGG,0.31 kcal/mol
18,ACGGTCACGTGTAGTG,0.06 kcal/mol
19,GTGTGCACGTGATTAG,0.25 kcal/mol
20,GGGTTCACGTGGCAGC,0.15 kcal/mol
21,GTTAGCACGTGTGTTC,-0.04 kcal/mol
22,AATTTCACGTGTGCGA,0.22 kcal/mol
23,TTATTCACGTGTGGCC,0.34 kcal/mol
24,ATGTTCACGTGGCTAT,0.19 kcal/mol
25,TAAGACACGTGTGGTT,0.09 kcal/mol
26,ATGGTCACGTGATAGC,0.24 kcal/mol

row,Sequence,relative binding free energy
1,TATGGCACGTGGGAGA,-0.1 kcal/mol
2,TATATCACGTGCATGT,0.08 kcal/mol
3,TTCAACACGTGGTTAT,0.04 kcal/mol
4,TAGGTCACGTGGGATA,0.11 kcal/mol
5,TCGCTCACGTGTGGGT,0.08 kcal/mol
6,ATTGCCACGTGTTCGT,-0.09 kcal/mol
7,GGGGCCACGTGGCGAG,-0.26 kcal/mol
8,ATCGTCACGTGTGGGC,0.13 kcal/mol
9,TCTAGCACGTGTATAT,0.07 kcal/mol
10,GGAGGCACGTGGATGC,-0.08 kcal/mol
11,ATAGTCACGTGTGGCT,0.22 kcal/mol
12,TGGGTCACGTGAGGGG,0.36 kcal/mol
13,ATGGGCACGTGATGCG,-0.07 kcal/mol
14,TGTGGCACGTGAAATA,0.16 kcal/mol
15,TGTCGCACGTGGGTGC,-0.14 kcal/mol
16,TGGTTCACGTGATTGT,0.42 kcal/mol
17,TTTAGCACGTGTAGTT,-0.06 kcal/mol
18,TAATGCACGTGGTTCG,-0.02 kcal/mol
19,GGATCCACGTGTGGTT,0.05 kcal/mol
20,TTTCGCACGTGTTCAT,-0.01 kcal/mol
21,AAAGTCACGTGCGAGT,0.25 kcal/mol
22,GGAACCACGTGGTTTT,0.1 kcal/mol
23,CGGCTCACGTGTGGTG,0.07 kcal/mol
24,TCGTGCACGTGCGTTG,-0.12 kcal/mol
25,AGGTGCACGTGCCGGT,-0.3 kcal/mol
26,GTGTCCACGTGGAGTG,0.07 kcal/mol

row,Sequence,relative binding free energy
1,GTTGTCACGTGAAGGG,0.38 kcal/mol
2,TTGGGCACGTGCAGGA,-0.22 kcal/mol
3,GTAAACACGTGGTGAG,-0.05 kcal/mol
4,GGGTTCACGTGTGGTC,0.36 kcal/mol
5,GGTTCCACGTGTTTAG,0.11 kcal/mol
6,GGATGCACGTGCGGAG,0.06 kcal/mol
7,GAGGTCACGTGAAGGT,0.29 kcal/mol
8,AGTTCCACGTGTTGGA,0.03 kcal/mol
9,GAATACACGTGGTGGA,0.2 kcal/mol
10,GGCATCACGTGGGGCT,0 kcal/mol
11,ATTCTCACGTGTGGGT,0.27 kcal/mol
12,GGGGTCACGTGTGCAG,0.03 kcal/mol
13,GGGAGCACGTGTGCGA,-0.14 kcal/mol
14,TTAGGCACGTGGATCG,-0.03 kcal/mol
15,GGGATCACGTGTAGGC,0.02 kcal/mol
16,GGATGCACGTGGCATG,-0.12 kcal/mol
17,TAAGGCACGTGAAGTG,0.11 kcal/mol
18,GTTACCACGTGAGTGG,0.13 kcal/mol
19,GTTGACACGTGCGTTG,0.04 kcal/mol
20,ATGGTCACGTGGACGT,0.08 kcal/mol
21,AATGGCACGTGTATAA,-0.01 kcal/mol
22,TTTTGCACGTGAAGGA,0.32 kcal/mol
23,TGTGGCACGTGTCGTA,-0.01 kcal/mol
24,TGTAGCACGTGCGGGT,-0.18 kcal/mol
25,TTGTGCACGTGTGGAG,0.07 kcal/mol
26,ATACACACGTGTGTTT,0.07 kcal/mol

row,Sequence,relative binding free energy
1,GAAGTCACGTGGGCTT,0.05 kcal/mol
2,GTTATCACGTGTTAAT,0.2 kcal/mol
3,GGGATCACGTGGGTAA,0.02 kcal/mol
4,AATGTCACGTGGTGCA,-0.14 kcal/mol
5,CAGGACACGTGCGTTT,0.3 kcal/mol
6,TAGGTCACGTGGGAAA,0.07 kcal/mol
7,GTGTGCACGTGGATTA,0.06 kcal/mol
8,CTGTTCACGTGTGGGC,0.29 kcal/mol
9,TCGAGCACGTGTGTTG,0.06 kcal/mol
10,GCGGTCACGTGGTATT,0.18 kcal/mol
11,TTAAGCACGTGGGGTT,-0.14 kcal/mol
12,GTGAACACGTGATGTA,0.04 kcal/mol
13,GTGGACACGTGTGCGC,-0.01 kcal/mol
14,TGGGCCACGTGTGTCA,-0.06 kcal/mol
15,AGTGGCACGTGATGGC,0 kcal/mol
16,TAGAGCACGTGTGCGA,-0.12 kcal/mol
17,TGCTTCACGTGTATGA,0.15 kcal/mol
18,GTCGACACGTGGTGAT,0.07 kcal/mol
19,GTGTTCACGTGTGCAT,0.2 kcal/mol
20,CTTGTCACGTGGGGGA,-0.08 kcal/mol
21,AGGACCACGTGGGAGG,-0.22 kcal/mol
22,TTAGGCACGTGTACGA,-0.05 kcal/mol
23,CGTTGCACGTGTGGGT,0.1 kcal/mol
24,GGCGTCACGTGCTTTG,0.16 kcal/mol
25,CGGGGCACGTGCGCTG,-0.32 kcal/mol
26,ATACGCACGTGATGGG,-0.05 kcal/mol

row,Sequence,relative binding free energy
1,GTAGTCACGTGTCAGG,0.25 kcal/mol
2,GAAGTCACGTGAGGGG,0.33 kcal/mol
3,CGCGTCACGTGGTGTT,0.01 kcal/mol
4,ACGGGCACGTGCAGGG,-0.21 kcal/mol
5,TCGGCCACGTGGGTGA,-0.2 kcal/mol
6,AGGGTCACGTGAATGC,0.3 kcal/mol
7,TCTAGCACGTGGTGTT,-0.18 kcal/mol
8,GGGAACACGTGTTGAT,0.29 kcal/mol
9,GTAATCACGTGAGATG,0.52 kcal/mol
10,CGGATCACGTGTCTGG,0.31 kcal/mol
11,GAGAACACGTGGGGGA,-0.05 kcal/mol
12,ATGTTCACGTGGAGAA,0.24 kcal/mol
13,TTGTGCACGTGTAACA,0.16 kcal/mol
14,TTCTTCACGTGAGGGG,0.45 kcal/mol
15,AAGTGCACGTGAAGTT,0.22 kcal/mol
16,TTCTGCACGTGTATAG,0.01 kcal/mol
17,GTGGGCACGTGACGGC,0.25 kcal/mol
18,AAATTCACGTGTAATT,0.42 kcal/mol
19,AACGGCACGTGGTAGT,-0.2 kcal/mol
20,AGAGCCACGTGGGTTG,-0.26 kcal/mol
21,GGTTTCACGTGTGGTA,0.34 kcal/mol
22,GGCGCCACGTGTGTTG,-0.11 kcal/mol
23,AAGTCCACGTGTGAGT,0.26 kcal/mol
24,GAATTCACGTGCGTTA,0.31 kcal/mol
25,GATGACACGTGCCGGG,0.14 kcal/mol
26,TCGGTCACGTGTTGCG,0 kcal/mol

row,Sequence,relative binding free energy
1,GTAGTCACGTGGAGAG,0.27 kcal/mol
2,GCATGCACGTGTTGGT,-0.02 kcal/mol
3,CTTGTCACGTGAGGGT,0.32 kcal/mol
4,TTAGTCACGTGGGCCG,-0.05 kcal/mol
5,TCGATCACGTGGATTT,0.37 kcal/mol
6,GTTGACACGTGGTTCG,0.04 kcal/mol
7,ATAAACACGTGGTTGG,-0.09 kcal/mol
8,GTGACCACGTGTAGGT,-0.08 kcal/mol
9,GGACGCACGTGGGTCA,-0.09 kcal/mol
10,TGCTTCACGTGGTATT,0.21 kcal/mol
11,GTGGACACGTGTAGTG,0.04 kcal/mol
12,TGAATCACGTGCCGTG,0.2 kcal/mol
13,AAGTTCACGTGTTTAT,0.13 kcal/mol
14,TTCATCACGTGGGTAG,0.1 kcal/mol
15,TGGACCACGTGTGTGG,0.07 kcal/mol
16,TTTAGCACGTGTGAGG,0.12 kcal/mol
17,TCAGGCACGTGTTGCT,-0.01 kcal/mol
18,TACTTCACGTGTTTAT,0.24 kcal/mol
19,GGGGCCACGTGGAGTT,0.07 kcal/mol
20,GTCGGCACGTGAGGAT,0.22 kcal/mol
21,GAGATCACGTGTAGTA,0.19 kcal/mol
22,GTAATCACGTGGGTAA,0.05 kcal/mol
23,TAGTTCACGTGTAGTA,0.3 kcal/mol
24,ATTAACACGTGGGAGG,-0.13 kcal/mol
25,TTGGGCACGTGTTTTG,-0.04 kcal/mol
26,AAGGGCACGTGAGGGG,0.06 kcal/mol

row,Sequence,relative binding free energy
1,TATGGCACGTGTAAGG,0 kcal/mol
2,TGTTTCACGTGCGAAT,0.19 kcal/mol
3,AGTGACACGTGGTGAT,-0.14 kcal/mol
4,TGTGCCACGTGAAATT,0.39 kcal/mol
5,TAATTCACGTGTTCTG,0.2 kcal/mol
6,AGGTTCACGTGTATGC,0.28 kcal/mol
7,TTAGACACGTGTCTGG,0.04 kcal/mol
8,TTTTGCACGTGGGACC,-0.03 kcal/mol
9,ATTTACACGTGAAGAT,0.22 kcal/mol
10,TAGATCACGTGGGCGT,0 kcal/mol
11,TGGTTCACGTGGGTTC,0.17 kcal/mol
12,TTGTGCACGTGTCATG,0.07 kcal/mol
13,TGGGTCACGTGACTTA,0.08 kcal/mol
14,ATGAGCACGTGGGCGC,-0.15 kcal/mol
15,TTTTTCACGTGTCGGG,0.31 kcal/mol
16,GGCGCCACGTGGGGCA,-0.18 kcal/mol
17,GATGGCACGTGATCGT,-0.01 kcal/mol
18,CATTTCACGTGAGCGG,0.49 kcal/mol
19,TATGGCACGTGCGGTT,-0.16 kcal/mol
20,ACAGGCACGTGGTAGG,-0.4 kcal/mol
21,CATGTCACGTGGGCAG,-0.08 kcal/mol
22,TGAGGCACGTGAGTTG,0.08 kcal/mol
23,GTACACACGTGTTGTG,0.12 kcal/mol
24,GATTGCACGTGGTCGT,-0.09 kcal/mol
25,TAGGTCACGTGGGCCG,0.01 kcal/mol
26,TGGGGCACGTGAGACG,-0.05 kcal/mol

row,Sequence,relative binding free energy
1,ATGGGCACGTGGTACA,-0.25 kcal/mol
2,TAGTTCACGTGTGATT,0.29 kcal/mol
3,TCAGTCACGTGAAGTT,0.49 kcal/mol
4,GTTCGCACGTGGTGTG,-0.09 kcal/mol
5,GGTATCACGTGCTTGA,0.12 kcal/mol
6,CTTTTCACGTGTAGTT,0.25 kcal/mol
7,ATCGTCACGTGGAAGG,0.05 kcal/mol
8,GTATGCACGTGTAAAA,0.19 kcal/mol
9,ATATTCACGTGCAAGT,0.27 kcal/mol
10,TAGTTCACGTGTTTGT,0.29 kcal/mol
11,GTAGACACGTGGTCAG,-0.05 kcal/mol
12,GTGTGCACGTGTATTG,-0.03 kcal/mol
13,AGATTCACGTGAGGGC,0.38 kcal/mol
14,CCTTTCACGTGGGTGT,0.07 kcal/mol
15,TGTGTCACGTGTGCAA,-0.07 kcal/mol
16,TTTTTCACGTGTTCCG,0.26 kcal/mol
17,TTCTTCACGTGATTTA,0.17 kcal/mol
18,TGGAGCACGTGGTTTC,-0.15 kcal/mol
19,TGCGTCACGTGGTCTA,0 kcal/mol
20,GATGCCACGTGCGGTG,-0.1 kcal/mol
21,TTAGGCACGTGTAGTA,0.1 kcal/mol
22,TTTCACACGTGTTTGG,0.07 kcal/mol
23,AGGTGCACGTGGGTCC,-0.15 kcal/mol
24,AATGTCACGTGGTTAT,0.07 kcal/mol
25,GTGGTCACGTGAAAGA,0.48 kcal/mol
26,GTTAGCACGTGGGCCG,-0.16 kcal/mol

row,Sequence,relative binding free energy
1,ATTTTCACGTGATTGG,0.32 kcal/mol
2,ATTATCACGTGGCGCG,0.07 kcal/mol
3,GATTGCACGTGTTGTC,0.03 kcal/mol
4,CCGAGCACGTGGGGTT,-0.15 kcal/mol
5,GAGGTCACGTGTCATT,0.2 kcal/mol
6,GTTTGCACGTGTTGTC,0.17 kcal/mol
7,TGTAGCACGTGTTCAG,-0.2 kcal/mol
8,GGGGGCACGTGTAGTG,-0.03 kcal/mol
9,TATGGCACGTGTCGTG,-0.07 kcal/mol
10,GGGTACACGTGTGTTC,0 kcal/mol
11,CGTTACACGTGGCTGG,-0.03 kcal/mol
12,GGCAACACGTGTGGTG,0.07 kcal/mol
13,TAGAACACGTGGGGAC,0.22 kcal/mol
14,GGTGTCACGTGCAATG,0.12 kcal/mol
15,CTATGCACGTGGCGGG,-0.2 kcal/mol
16,CGTAGCACGTGGTGAA,-0.1 kcal/mol
17,TCACGCACGTGGAGGG,-0.08 kcal/mol
18,GAAGGCACGTGGTGCT,-0.35 kcal/mol
19,TGTGTCACGTGCATTA,-0.09 kcal/mol
20,AGGGACACGTGTAGTA,-0.06 kcal/mol
21,AAGTTCACGTGGAGGC,0.1 kcal/mol
22,TTTTTCACGTGGTTAA,0.23 kcal/mol

# — the BET-seq Pho4 binding data (Le et al. 2018)
